# Reference: PubChem BioAssay AID1347071 (National Center for Advancing Translational Sciences (NCATS), 2019)
# Among all 410,000 compounds or so, about 260 (0.063%) were called active. This list was built around the results that the source calls inconclusive (neither active nor inactive); the mix of calls is not that of the screen. Calls come from the whole dose curve; as a rule, active = well fitted activation curve with a large enough effect; inconclusive = small, poorly fitted or top-dose-only effect; inactive = no such curve, though single readings can be large or run the other way. Potencies of inconclusive entries are left out as doubtful fits.
# Assay: qHTS for compounds that reverse cellular toxicity of Amyloid beta (A-beta) peptide in yeast: Primary Screen; note: nearly all actives have a fitted effect of over 55% in size
# Details: yeast expressing A-beta42, growth rescue, OD600, 48 h; growth rescue: at 46.1 µM (top of the series), 0% DMSO, 100% iron-clioquinol control
# Procedure, shortened: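 Yeast A-beta toxicity model in growth medium with pinned compounds, 48 h at 30 C; growth read as absorbance at 600 nm. Normalized to FeCl3/clioquinol equimolar mix (positive) and DMSO (negative).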
# Potency is the fitted concentration of half-maximal effect; tags give direction and shape of the fitted curve.
Compound,Potency,growth rescue
Cc1ccc(S(=O)(=O)N(C)CCCC(=O)Nc2cccc3ccccc23)cc1,"inconclusive [activator, full curve]",–
O=C(Nc1ccc(NC(=O)c2ccc3c(c2)OCCO3)cc1)c1ccccc1,"inconclusive [activator, partial curve, poor fit]",–
O=C(CSc1cccc[n+]1[O-])CSc1cccc[n+]1[O-],"inconclusive [activator, single point]",–
CCOc1ccc2c(c1)C(C)=CC(C)(C)N2S(=O)(=O)c1ccc(F)cc1,"inconclusive [activator, partial curve, poor fit]",–
COc1ccc(NC(=O)N(C)C[C@H]2Oc3c(NC(=O)C4CC4)cccc3C(=O)N([C@H](C)CO)C[C@@H]2C)cc1,"inconclusive [activator, partial curve, poor fit]",–
CC(=O)Oc1ccc2c(c1)CCC1C2CCC2(C)C(OC(C)=O)CCC12 (stereo not given),–,inactive: -39.9%
CCN(CC)C(=O)c1sc2nc(-c3cccs3)cc(-c3cccs3)c2c1N,"inconclusive [activator, single point]",–
Cc1cccc(C(=O)NC2=NC(c3ccc(Cl)cc3)CC(=O)N2)c1 (stereo not given),–,inactive: 23.3%
CCOC(=O)c1c(C)c(-c2ccccc2)n(CC(=O)NCCc2cccc(C)c2)c1C,–,inactive: 5.68%
COc1ccccc1OCCN1CSC(=S)N(C)C1,–,inactive: -40.4%
O=C(COc1ccc2ccccc2c1)NCCn1ccc2ccccc21,"inconclusive [activator, single point]",–
CCNC(=O)NC(=O)CSc1cccc(C(F)(F)F)c1,"inconclusive [activator, full curve, poor fit]",–
CCC(NC(=S)NCc1ccc(F)cc1)c1ccc(C)cc1 (stereo not given),"inconclusive [activator, partial curve, poor fit]",–
O=C(Cc1cnn(-c2ccccc2)c1)c1ccc(O)c(O)c1O,"inconclusive [activator, partial curve, poor fit]",–
O=C(CCCc1c[nH]c2ccccc12)Nc1ccc2ccccc2c1,"inconclusive [activator, full curve, poor fit]",–
O=C(NCCc1csc(-c2cccnc2)n1)c1c(F)cccc1F,–,inactive: 0.559%
COc1ccc(/C=C/C(=O)Nc2ccc(OC)cc2[N+](=O)[O-])cc1,–,inactive: -1.37%
COc1cc(CO)cc(-c2cc(CO)cc(OC)c2OC)c1OC,–,inactive: 12.6%
Fc1ccc(CNC(=S)NCc2ccccc2)cc1,"inconclusive [activator, partial curve, poor fit]",–
Cc1[nH]n(C(N)=S)c(=O)c1N=Nc1cccc(Cl)c1,"inconclusive [activator, partial curve, poor fit]",–
O=C(c1ccc2ncsc2c1)N1CCN(c2cccc(C(F)(F)F)c2)CC1,active: 17.8 µM,–
CC(C)CC(=O)N/C(N)=N/c1nc2ccccc2s1,active: 11.2 µM,–
COc1cc(NC(=S)Nc2ncccc2C)cc(OC)c1OC,"inconclusive [activator, single point]",–

Compound,Potency,growth rescue
COC(=O)Nc1ccc(SCC(=O)c2ccc(Cl)cc2)cc1,"inconclusive [activator, single point]",–
O=C(NC(=S)N1CCc2ccccc21)c1ccccc1Br,"inconclusive [activator, single point]",–
CCCCC(Sc1nc2cc3c(cc2c(=O)n1CCCC(=O)NCc1ccc2c(c1)OCO2)OCO3)C(=O)OCC (stereo not given),–,inactive: -17.1%
CCC(=O)N1CCc2cc(S(=O)(=O)Nc3cc(C)ccc3OC)ccc21,"inconclusive [activator, single point]",–
Cc1ccc(NC(=O)C(C)Sc2nnc(-c3cccnc3)n2-c2ccccc2)cc1 (stereo not given),–,inactive: 18.2%
COc1ccc(/C(O)=C/Sc2nnc(Cc3ccccc3)o2)cc1,"inconclusive [activator, single point]",–
Cc1cc(N)n2ncc(-c3ccccc3)c2n1,"inconclusive [activator, single point]",–
O=C(Nc1ccccc1)N(Cc1cccc(Cl)c1)c1ccccn1,"inconclusive [activator, single point]",–
COc1cccc(CNc2nc3cc(-c4ccc(OC)cc4C)sc3c(=O)n2C)c1,–,inactive: 6.85%
CC1(c2ccccc2)NC(=O)N(Cc2ccc([N+](=O)[O-])cc2)C1=O (stereo not given),"inconclusive [activator, partial curve, poor fit]",–
O=C1C=C(c2ccc(OC(F)(F)F)cc2)C[C@@H](c2ccc(F)cc2)C1,"inconclusive [activator, single point]",–
Cc1noc(C)c1S(=O)(=O)Nc1ccc(C(=O)N2CCN(c3ccc(Cl)cc3)CC2)cc1,"inconclusive [activator, full curve]",–
CCCCN(C=O)c1c(CC)nc2ccc(C(=O)N3CCN(S(=O)(=O)CC)CC3)cn12,–,inactive: -7.39%
O=C(Oc1cccc2cccnc12)c1ccc2c(c1)OCCO2,–,inactive: -42.8%
NNC(=O)c1cc2c(ccc3ccccc32)o1,–,inactive: -19.4%
CCC(=O)NC(=S)Nc1ccc(N2CCN(C(=O)c3ccc(Cl)cc3)CC2)cc1,"inconclusive [activator, single point]",–
O=C(c1ccc(S(=O)(=O)c2ccccc2)cc1)N1CCCCCC1,"inconclusive [activator, full curve, poor fit]",–
COc1ccc(NC(=S)NC(=O)/C=C/c2ccccc2)cc1,"inconclusive [activator, full curve]",–
O=C(Nc1ccc([N+](=O)[O-])cc1)OC1CCS(=O)(=O)C1 (stereo not given),–,inactive: -21.7%
NNC(=S)NC1CCCCCCCCCCC1,"inconclusive [activator, partial curve, poor fit]",–
Brc1ccc(C2Nc3cccc4cccc(c34)N2)cc1,"inconclusive [activator, partial curve, poor fit]",–
CCN(CC)c1ccc(/C=N/NC(=O)CNC(=O)/C=C/c2ccco2)cc1,–,inactive: 1.65%
